Measurements published in PubChem BioAssay AID540267 (National Center for Advancing Translational Sciences (NCATS), 2011).
Out of some 340,000 compounds screened, about 530 (0.16%) were called active. This list was built around the results that the source calls inconclusive (neither active nor inactive); the mix of calls is not that of the screen. Cut-off read from the data, not from the text of the source: active = activity change below about -80%; inconclusive = between about -30% and that limit; inactive = weaker than that.

assay: Small Molecules that selectively kill Giardia lamblia: qHTS; details: Giardia lamblia trophozoite viability; at 7.66 µM; hits give low values;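 note: parasites exposed to compound for two days anaerobically before the ATP read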
Outline: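 Anaerobic 48 hrs incubation at 37 deg C of 100 trophozoites/well with test compounds; ATPLite 1-Step luminescence, 15-30 min RT, reports cellular ATP as viability.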
% is set by controls: 0 for no effect and ±100 for the full control effect.

**Q.** For COc1ccc(Nc2c(-c3ccc(OC)cc3)nc3cnccn23)cc1, which activity change is on record?
**A.** inactive: 14.3%

**Q.** Which activity change does the source give for COCC(=O)N[C@@H]1c2ccccc2CC[C@@H]1OCc1ccccc1 here?
**A.** inconclusive: -41.8% [inhibitor]

**Q.** With O=C(CN1C(=O)NC2(CCCc3ccccc32)C1=O)NCc1ccc(Cl)cc1Cl (stereo not given) as the compound, how does the activity change read?
**A.** inconclusive: -35.5% [inhibitor]

**Q.** With CN(C(=O)c1cc2c(=O)n3ccccc3nc2s1)C1CCCCC1 as the compound, how does the activity change read?
**A.** inactive: 9.98%

**Q.** For Cc1cccc2cc(CN(Cc3ccc(F)cc3)Cc3nnnn3C3CCCC3)c(=O)[nH]c12, which activity change is on record?
**A.** inactive: 11.5%

**Q.** With CN(C)CCOC(=O)C1(c2ccccc2)CCOCC1 as the compound, how does the activity change read?
**A.** inconclusive: -33.3% [inhibitor]

**Q.** With Cc1ccc2nc(NC(=O)C3CCCN(S(=O)(=O)c4cnc[nH]4)C3)sc2c1 (stereo not given) as the compound, how does the activity change read?
**A.** inconclusive: -46.5% [inhibitor]

**Q.** With CC(C)S(=O)(=O)N1CCCC(C(=O)c2cccc(Cl)c2)C1 (stereo not given) as the compound, how does the activity change read?
**A.** inconclusive: -32.5% [inhibitor]

**Q.** Which activity change does the source give for N#CC1=C(N)C(C#N)(C#N)C(c2cccnc2)C2CN(C(=O)OCc3ccccc3)CC=C12 (stereo not given) here?
**A.** inactive: -1.29%

**Q.** For O=C(O)c1ccccc1N/N=C\c1ccnc2ccccc12, which activity change is on record?
**A.** inconclusive: -43% [inhibitor]

**Q.** Which activity change does the source give for CC12CCC(C(=O)N3CCc4ccccc43)(CC1=O)C2(C)C (stereo not given) here?
**A.** inactive: 3.54%

**Q.** For O=C(CN1CCN(c2ccccc2)CC1)Nc1scc2c1c(=O)oc1ccccc12, which activity change is on record?
**A.** inconclusive: -49.2% [inhibitor]

**Q.** For Cc1coc2cc3oc(=O)c(CCC(=O)N4C[C@H]5C[C@@H](C4)c4cccc(=O)n4C5)c(C)c3cc12, which activity change is on record?
**A.** inactive: 14.2%

**Q.** With COc1cccc(C(=O)NCCS(=O)(=O)N(C)C2CCCCC2)c1 as the compound, how does the activity change read?
**A.** inactive: -20%

**Q.** For O=c1[nH]n(-c2ccccc2)c(=O)cc1Cl, which activity change is on record?
**A.** inactive: -9.28%

**Q.** Which activity change does the source give for CCN(CC(=O)NCc1ccc(F)cc1)C(=O)c1oc2ccccc2c1C here?
**A.** inconclusive: -34.7% [inhibitor]

**Q.** Which activity change does the source give for CCOC(=O)c1sc2nc(C)nc(Nc3ccccc3)c2c1C here?
**A.** inactive: -1.24%

**Q.** With Oc1ccc(-c2ccccc2)cc1CN1CCCCCC1 as the compound, how does the activity change read?
**A.** inactive: 22%

**Q.** For CN(C(=O)/C=C/c1ccc([N+](=O)[O-])s1)c1ccccc1, which activity change is on record?
**A.** inconclusive: -69.5% [inhibitor]

**Q.** For C=CCN1C=CC(=O)CC1, which activity change is on record?
**A.** inconclusive: -31.3% [inhibitor]

**Q.** With [N-]=[N+]=CC(=O)c1ccnc(C(=O)C=[N+]=[N-])c1 as the compound, how does the activity change read?
**A.** inconclusive: -44.8% [inhibitor]

**Q.** Which activity change does the source give for CC(C)(C)OC(=O)N1CCC2(CC1)Oc1ccc(Cl)cc1C(=O)C21CC(c2ccc(Cl)cc2)=NO1 (stereo not given) here?
**A.** inconclusive: -36.4% [inhibitor]

**Q.** With COC(=O)c1ccc(NC(=O)C(=O)c2cccn2C)cc1 as the compound, how does the activity change read?
**A.** inactive: -7.97%

**Q.** With CN(C)c1cc(N/N=C/c2ccc(Cl)cc2)nc(N(C)C)n1 as the compound, how does the activity change read?
**A.** inactive: -6.82%

**Q.** For COc1ccc(CNC(=O)CN2C(=O)COc3ccc(S(=O)(=O)N4CCCCC4)cc32)cc1, which activity change is on record?
**A.** inconclusive: -47% [inhibitor]

**Q.** With Cc1nnc(N/N=C/c2ccccc2O)n1N as the compound, how does the activity change read?
**A.** inactive: -10.9%

**Q.** For C#CCOCCOCCOCCNc1nc(N2CCN(C(=O)C([C@@H](C)O)n3cc([C@@H](N)CCCCN)nn3)CC2)nc(N2CCN(C(=O)[C@H](CCCN=C(N)N)n3cc(C(N)[C@@H](C)CC)nn3)CC2)n1 (stereo not given in full), which activity change is on record?
**A.** inconclusive: -34.2% [inhibitor]

**Q.** With Cc1cccc(NC(=O)COc2ccc(Br)cc2/C=N/O)c1 as the compound, how does the activity change read?
**A.** inactive: -8.33%

**Q.** Which activity change does the source give for O=C(Nc1ccccn1)c1sc2cccc(F)c2c1Cl here?
**A.** inconclusive: -53% [inhibitor]

**Q.** Which activity change does the source give for CCc1ccc(C(=O)COC(=O)[C@@H](NC(N)=O)[C@@H](C)CC)cc1 here?
**A.** inconclusive: -52.1% [inhibitor]

**Q.** For NC(=S)N/N=C/c1ccc(-c2ccccc2)o1, which activity change is on record?
**A.** inactive: 9.76%

**Q.** For CC(=O)c1c(C)oc2c1C(=O)c1ccccc1C2=O, which activity change is on record?
**A.** inconclusive: -48% [inhibitor]

**Q.** Which activity change does the source give for CCC(=O)Nc1ccc(N2CCN(C(=O)c3ccccc3C)CC2)cc1 here?
**A.** inactive: -0.645%

**Q.** Which activity change does the source give for O=c1[nH]nc(CNc2cccc(C(F)(F)F)c2)c2ccccc12 here?
**A.** inconclusive: -30.5% [inhibitor]

**Q.** With O=C(Nc1ccccc1C(=O)NC1CC1)c1ccc([N+](=O)[O-])o1 as the compound, how does the activity change read?
**A.** inconclusive: -66% [inhibitor]

**Q.** Which activity change does the source give for N#Cc1c(/N=C\c2ccc(O)c([N+](=O)[O-])c2)sc2c1CCCC2 here?
**A.** inconclusive: -39% [inhibitor]

**Q.** Which activity change does the source give for Nc1ccc2nc3c(=O)n(CCc4ccccc4)c(=O)[nH]c3nc2c1 here?
**A.** inconclusive: -30.7% [inhibitor]

**Q.** Which activity change does the source give for Cc1cc2nc(-c3ccc[nH]c3=O)[nH]c2cc1C here?
**A.** active: -93.7%

**Q.** With Cc1cccc(Nc2cc(C)c3c(O)cccc3n2)c1C as the compound, how does the activity change read?
**A.** inactive: -1.36%

**Q.** With CC(=O)N[C@@H]1c2c(ccc3ccccc23)OC[C@@H]1COC(C)=O as the compound, how does the activity change read?
**A.** inconclusive: -32.9% [inhibitor]

**Q.** Which activity change does the source give for CC1=CC(C)(C)n2c(O)c(N=NC(N)=S)c3c(C)c(C)cc1c32 here?
**A.** inactive: -6.15%

**Q.** Which activity change does the source give for O=C(NCc1ccc2c(c1)OCO2)c1cc(Cl)ccc1Cl here?
**A.** inactive: 5.28%

**Q.** Which activity change does the source give for CC(C)(C)OC(=O)N1CCC(c2c(C(=O)N3CCN(C4CCCCC4)CC3)cnn2-c2ccccc2)CC1 here?
**A.** inconclusive: -30.4% [inhibitor]

**Q.** With COc1cc(/C=C/c2onc(C)c2[N+](=O)[O-])cc(OC)c1OC as the compound, how does the activity change read?
**A.** inconclusive: -45.7% [inhibitor]

**Q.** For CCC(C)(C)n1nnnc1C(c1cc2ccc(OC)cc2[nH]c1=O)N1CCc2ccccc21 (stereo not given), which activity change is on record?
**A.** inactive: 6.25%

**Q.** For COc1ccc(NC(=O)N(C)C[C@H]2Oc3c(NS(=O)(=O)c4cccs4)cccc3C(=O)N([C@@H](C)CO)C[C@@H]2C)cc1, which activity change is on record?
**A.** inconclusive: -31.7% [inhibitor]

**Q.** Which activity change does the source give for O=C1C(Cc2ccccc2)Nc2ncnc(N3CCOCC3)c2N1Cc1ccc(Br)cc1 (stereo not given) here?
**A.** inconclusive: -31.6% [inhibitor]

**Q.** With Cc1ccc(S(=O)(=O)N2[C@@H](c3cccc(Cl)c3)C(C(=O)O)=CC[C@H]2c2cccc(Cl)c2)cc1 as the compound, how does the activity change read?
**A.** inconclusive: -49% [inhibitor]

**Q.** With Nc1nc(N)nc(-c2ccc([N+](=O)[O-])o2)n1 as the compound, how does the activity change read?
**A.** inconclusive: -52% [inhibitor]

**Q.** For Cn1ccc(-c2cc(C(=O)O)c3ccccc3n2)n1, which activity change is on record?
**A.** inconclusive: -37.8% [inhibitor]

**Q.** For O=C(CCc1ccc(S(=O)(=O)N2CCOCC2)cc1)Nc1nc(COc2ccccc2)cs1, which activity change is on record?
**A.** inactive: -2.87%

**Q.** With O=C1NC(=Nc2ccccc2)S/C1=C\c1cccn1-c1ccccc1 as the compound, how does the activity change read?
**A.** inactive: -21.2%

**Q.** With CNC(=O)CSc1nnnn1-c1cc(C)ccc1C as the compound, how does the activity change read?
**A.** inconclusive: -32% [inhibitor]

**Q.** For O=C(NCC(Cl)c1ccc2ccccc2c1)c1c(F)cccc1F (stereo not given), which activity change is on record?
**A.** inactive: 24.6%

**Q.** For CCS(=O)(=O)c1nc(S(=O)(=O)c2ccc(Cl)cc2)c(N2CCC(O)CC2)s1, which activity change is on record?
**A.** inactive: -1.66%

**Q.** With COc1ccc(-c2nn(-c3ccccc3)cc2/C=C/C(=O)O)cc1[N+](=O)[O-] as the compound, how does the activity change read?
**A.** inconclusive: -31.4% [inhibitor]

**Q.** With CN(CC(=O)Nc1ccccc1Cl)C(=O)COC(=O)c1ccc([N+](=O)[O-])s1 as the compound, how does the activity change read?
**A.** inconclusive: -30.4% [inhibitor]

**Q.** With Cc1nn(-c2ccccc2)c2sc(C(=O)NNC(=O)COc3ccccc3)cc12 as the compound, how does the activity change read?
**A.** inactive: -19.1%

**Q.** With COc1cc(OC)nc(Oc2ccccc2C(=O)Oc2ccccc2Cl)n1 as the compound, how does the activity change read?
**A.** inactive: -0.656%

**Q.** For COc1ccc(/C=C2\Sc3ccc(C(=O)N4CCOCC4)cc3N(C)C2=O)cc1, which activity change is on record?
**A.** inconclusive: -32.5% [inhibitor]

**Q.** Which activity change does the source give for CCOC(=O)c1c(-c2ccc(C)cc2)cn2ccccc12 here?
**A.** inactive: -13.5%

**Q.** With [O-][n+]1c2cc(C(F)(F)F)ccc2c2n1CCN=C2c1ccc(Cl)cc1 as the compound, how does the activity change read?
**A.** active: -88.6%

**Q.** For O=c1[nH]c(=O)n([C@H]2C[C@H](O)[C@@H](CO)O2)cc1C(F)(F)F, which activity change is on record?
**A.** inconclusive: -31.5% [inhibitor]

**Q.** For CN(Cc1cnn(C)c1)C(=O)C1CCCCC1C(=O)O (stereo not given), which activity change is on record?
**A.** inactive: -26%

**Q.** With COc1cccc(/C=C(\C#N)c2nc3ccc(C)cc3[nH]2)c1OCC(=O)O as the compound, how does the activity change read?
**A.** inactive: -2.9%

**Q.** With CN1C(=S)SC(N(O)C(=O)Nc2ccc(Cl)c(Cl)c2)C1(C)C (stereo not given) as the compound, how does the activity change read?
**A.** inactive: 6.37%

**Q.** Which activity change does the source give for O=C(Nc1ncc([N+](=O)[O-])s1)C1CC(=O)N(c2ccc(F)cc2)C1 (stereo not given) here?
**A.** active: -86%

**Q.** For O=C(/C=C/c1ccc(Cl)cc1)NCCSc1ccccc1, which activity change is on record?
**A.** inconclusive: -35% [inhibitor]

**Q.** With COc1cc(-c2cc3nc4ccccc4n3c(N)c2C#N)cc(OC)c1OC as the compound, how does the activity change read?
**A.** inactive: -10.9%

**Q.** Which activity change does the source give for FC(F)(F)c1nc(-c2ccncc2)ncc1-c1nnnn1-c1ccccc1 here?
**A.** inactive: -0.73%

**Q.** For O=C(OC1CCOC1=O)c1cc(-c2cccs2)nc2ccccc12 (stereo not given), which activity change is on record?
**A.** inconclusive: -34.1% [inhibitor]

**Q.** For COc1ccc(CCNc2ncnc3c2c(C)c(C)n3CCO)cc1OC, which activity change is on record?
**A.** inactive: -10.5%

**Q.** For Cc1nnc(SCc2ccc(Cl)c(Cl)c2)s1, which activity change is on record?
**A.** inconclusive: -34.4% [inhibitor]

**Q.** Which activity change does the source give for O=C(N/N=C/c1ccc([N+](=O)[O-])o1)c1cc(-c2ccc(-c3ccccc3)cc2)nc2ccccc12 here?
**A.** active: -97.6%

**Q.** With Cc1ccccc1C1C(=O)c2ccccc2C1=O as the compound, how does the activity change read?
**A.** inconclusive: -31.1% [inhibitor]

**Q.** With COCCn1c(=O)sc2ccccc2c1=O as the compound, how does the activity change read?
**A.** inactive: 4%

**Q.** Which activity change does the source give for COc1ccc(-c2cc(=O)oc3cc(OC(=O)C4CCCCC4)c(Cl)cc23)cc1 here?
**A.** inconclusive: -43.6% [inhibitor]

**Q.** With CCOc1ccc(-c2cc(N3C(=O)Nc4ccccc4N3O)on2)cc1 as the compound, how does the activity change read?
**A.** inconclusive: -36.1% [inhibitor]

**Q.** For Cc1ncc(CO)c(/C=N/NC(=S)Nc2cccc(Cl)c2)c1O, which activity change is on record?
**A.** inconclusive: -30.5% [inhibitor]

**Q.** Which activity change does the source give for COc1cccc([C@@H]2CC=C(C(=O)O)[C@H](c3ccc(C)cc3)N2S(=O)(=O)c2ccc(C)cc2)c1 here?
**A.** inconclusive: -43.2% [inhibitor]
